What was measured:
[1] = target: T1, LacI-CFP-Nup155 R391H (human, UniProt O75694 1-1391, R391H); test: LacI/LacO array recruitment in cells
T1 sequence: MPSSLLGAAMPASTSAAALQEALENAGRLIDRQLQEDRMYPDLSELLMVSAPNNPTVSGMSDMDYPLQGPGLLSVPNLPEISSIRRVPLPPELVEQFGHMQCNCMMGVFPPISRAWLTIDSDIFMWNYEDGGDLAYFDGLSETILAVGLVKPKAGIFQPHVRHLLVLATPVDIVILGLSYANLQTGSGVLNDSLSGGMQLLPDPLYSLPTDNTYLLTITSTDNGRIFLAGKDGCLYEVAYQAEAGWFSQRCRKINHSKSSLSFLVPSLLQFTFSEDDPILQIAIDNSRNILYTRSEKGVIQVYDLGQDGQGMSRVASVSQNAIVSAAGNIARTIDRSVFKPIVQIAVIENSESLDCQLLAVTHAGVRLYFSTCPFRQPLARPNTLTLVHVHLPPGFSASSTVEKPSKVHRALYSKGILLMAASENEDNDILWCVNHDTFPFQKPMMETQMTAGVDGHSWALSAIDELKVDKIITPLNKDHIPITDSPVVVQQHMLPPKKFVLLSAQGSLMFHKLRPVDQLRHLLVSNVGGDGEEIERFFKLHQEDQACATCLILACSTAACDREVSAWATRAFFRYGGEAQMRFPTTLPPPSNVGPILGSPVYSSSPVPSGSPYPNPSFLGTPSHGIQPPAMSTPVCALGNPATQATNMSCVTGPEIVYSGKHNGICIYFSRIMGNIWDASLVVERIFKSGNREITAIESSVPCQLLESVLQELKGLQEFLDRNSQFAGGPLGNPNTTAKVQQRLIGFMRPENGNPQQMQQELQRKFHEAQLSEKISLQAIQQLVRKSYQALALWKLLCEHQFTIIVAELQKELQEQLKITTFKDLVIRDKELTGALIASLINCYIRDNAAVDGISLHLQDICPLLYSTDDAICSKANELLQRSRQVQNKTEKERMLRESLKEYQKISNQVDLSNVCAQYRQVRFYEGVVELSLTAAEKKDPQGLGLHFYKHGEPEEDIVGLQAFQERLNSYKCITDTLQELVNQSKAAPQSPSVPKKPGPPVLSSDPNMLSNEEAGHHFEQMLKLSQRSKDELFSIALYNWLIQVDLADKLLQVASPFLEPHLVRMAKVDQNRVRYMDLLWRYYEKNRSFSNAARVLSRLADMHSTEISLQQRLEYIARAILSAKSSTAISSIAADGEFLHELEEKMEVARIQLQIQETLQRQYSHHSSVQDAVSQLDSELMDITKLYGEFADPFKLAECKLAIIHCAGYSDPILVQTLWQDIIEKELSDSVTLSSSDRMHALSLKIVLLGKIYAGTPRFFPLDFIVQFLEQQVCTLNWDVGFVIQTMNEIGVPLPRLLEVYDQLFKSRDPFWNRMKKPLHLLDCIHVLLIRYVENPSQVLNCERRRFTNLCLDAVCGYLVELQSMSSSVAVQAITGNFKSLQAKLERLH

[2] = target: T2, LacI-CFP-Nt Nup133 (human, UniProt Q8WUM0 16-820); test: LacI/LacO array recruitment in cells
T2 sequence: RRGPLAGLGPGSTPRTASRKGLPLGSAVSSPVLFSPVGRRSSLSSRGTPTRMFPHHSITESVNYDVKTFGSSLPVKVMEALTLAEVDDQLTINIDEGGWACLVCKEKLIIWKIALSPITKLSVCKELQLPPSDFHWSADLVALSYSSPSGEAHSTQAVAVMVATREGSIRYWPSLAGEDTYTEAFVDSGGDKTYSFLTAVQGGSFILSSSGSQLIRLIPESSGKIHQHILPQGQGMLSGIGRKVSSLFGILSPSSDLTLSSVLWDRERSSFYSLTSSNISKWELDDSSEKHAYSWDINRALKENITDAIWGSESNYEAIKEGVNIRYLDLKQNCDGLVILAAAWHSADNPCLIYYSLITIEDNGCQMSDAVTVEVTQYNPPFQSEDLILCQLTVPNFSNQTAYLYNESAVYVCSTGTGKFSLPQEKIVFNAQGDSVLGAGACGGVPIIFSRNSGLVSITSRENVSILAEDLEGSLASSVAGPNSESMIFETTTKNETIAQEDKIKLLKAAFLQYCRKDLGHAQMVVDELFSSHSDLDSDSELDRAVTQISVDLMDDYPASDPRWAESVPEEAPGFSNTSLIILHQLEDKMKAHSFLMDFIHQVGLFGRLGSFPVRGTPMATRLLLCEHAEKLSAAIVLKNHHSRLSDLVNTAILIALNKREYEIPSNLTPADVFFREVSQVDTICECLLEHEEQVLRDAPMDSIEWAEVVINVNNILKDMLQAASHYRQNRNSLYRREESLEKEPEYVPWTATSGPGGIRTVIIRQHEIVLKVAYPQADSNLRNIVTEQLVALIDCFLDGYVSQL

- percent of transfected cells showing colocalization [1]: ~8%
- percent of transfected cells showing colocalization [2]: 14%
B1: Pom121 (endogenous) (natural protein)
chain: MSPAAAAAGAGERRRPIASVRDGRGRGCGGPARAVLLGLSLVGLLLYLVPAAAALAWLTVGATAAWWGLSREPRGSRPLSSFVRKARHRRPLSSFVRKARHRRTLFASPLAKSTANGNLLEPRTLLEGPDPAELLLMGSYLGKPGPPQPAAAPEGQDLRDRPGRRPPARPAPRSPPPRSPPPRSPPPSPPTHRAHHVYPSLPTPLLRPSRRPSPRDCGTLPNRFVITPRRRYPIHQAQYSCLGVLPTVCWNGYHKKAVLSPRNSR[about 450 residues not shown]KQSFLFGTQNTSPSSPAAPAASSAPPMFKPIFTAPPKSEKEGPTPPGPSVTATAPSSSSLPTTTSTTAPTFQPVFSSMGPPASVPLPAPFFKQTTTPATAPTTTAPLFTGLASATSAVAPITSASPSTDSASKPAFGFGINSVSSSSVSTTTSTATAASQPFLFGAPQASAASFTPAMGSIFQFGKPPALPTTTTVTTFSQSLHTAVPTATSSSAADFSGFGSTLATSAPATSSQPTLTFSNTSTPTFNIPFGSSAKSPLPSYPGANPQPAFGAAEGQPPGAAKPALAPSFGSSFTFGNSAAPAAAPTPAPPSMIKVVPAYVPTPIHPIFGGATHSAFGLKATASAFGAPASSQPAFGGSTAVFFGAATSSGFGATTQTASSGSSSSVFGSTTPSPFTFGGSAAPAGSGSFGINVATPGSSTTTGAFSFGAGQSGSTATSTPFAGGLGQNALGTTGQSTPFAFNVSSTTESKPVFGGTATPTFGLNTPAPGVGTSGSSLSFGASSAPAQGFVGVAPFGSAALSFSIGAGSKTPGARQRLQARRQHTRKK
